Measured values published in the RNAGym collection of RNA variant scans (doi:10.7554/elife.90254).
The source gives no read counts; variants with many changes may rest on few reads.

B1: OR4K15 (parent)
chain: GUUAACGGUCAUAGGCCAUGGAAACUAGGAGCACCAUUUCGCUGCCAGUGAAGAAAUGAACAAAGAAAAUCUGGGCCAGGCAGGCAUCAAAAGAAAUAGUCUUGCGCUCAACCAGAAAGUCUGUAAUCAUUUUAAGGGUA

Variants of: B1
Assay: self-cleavage, relative activity (ratio to wild type); higher = more cleavage; in vitro, sequencing; the parent is a self-cleaving ribozyme

Variant | self-cleavage
A36G A68G A78G | 0.3
A36G A96G A134C | 2.45
A36G U37C A52G A78G A110C A118U U124C | 0.02
A36G A51G A116G | 0.72
A36G G58A A90G A96G U102C A117G | 1.05
A33U A51G A56G | 1.49
A36G A62G A86G U122A | 2.09
A36C G48C A51G U131C | 1
A33G U39A U49C A52G | 0.55
A36G A47U G115U | 0.1
A36U U49C A55U G106A | 0.02
C34U A62G A86G U100C A114G | 0.7
A36U U102C A114U A116G | 0.04
U37C A90G U100A A126U | 0.31
A36G G106A A129G | 0
U37C A54G A89U U102A A111G A116G | 0.01
A36G U57C A68G U87C A126G | 0.64
U37C A67G A110U | 1.54
A33U A55G U70C U120C | 0.23
A36G U39C A47C A54G A135G | 0.87
A33U A66U A116C | 0.04
A33U A92G U132C | 0.54
A33U U127C A135G | 1.11
C34U A78G G80C | 0.05

Variant | self-cleavage
A33G U57C A94G U122A | 0.23
A33G U87A A110U | 0.62
A36G A51G A90G | 2.03
U37C A60G A68G A118U | 0.38
A33U A47G A54G | 0.78
U37C A62G U72C A95G | 0.05
C35U U43C A52G U100A | 0.42
U37C A52C A110G A135G | 0.09
A36G A56G A68G A140G | 1.79
C35U A52U A90G U108C U120C | 0
U37A A47U A52G | 0.92
A33U C46A A86G A95U U139C | 0.97
A36G A54G A62U U127C A129G U130C | 0.27
A33U U103A A111G | 0.04
A36U A60G U103C U130A | 0.56
U37C A66G A134G | 1.48
A33G U49C A51G A54C A110G A129U | 0.07
A36U U43A A47G U103C U108C | 0.02
A36U U70G A110C | 0.15
A36G U38C U132C | 0.94
U37C A78G A134U | 0.08
C34U U39A A82G A96G | 0.36
A36U A69G A89G | 1.46
A33G U43C G73A U100C | 0.16

Variant | self-cleavage
A33U A110U A111G U120A | 0.01
A36G A66G A98G | 1.07
U37C A51G A116G | 0.68
A36U U38G A60G A64U U70C U87C | 0.08
A33G U102C U122A | 2.06
U37C A64G U87C A125G | 0.46
U37A U49C U100A | 0.48
U37C A52G A98G A114U U122C | 0.01
C35U U87C A110G | 0.09
A33U A60G U87G | 0.25
C35U G74A U131C | 0.13
A33U A55G A110G | 0.22
U37C G44A A51G A62G G73A A89G | 0.28
A36G U37C A67G U72C A89G A117G | 0.25
A36G G58U A64G A86G | 0.96
U37C A66G A116G | 0.53
U37C A55G A66G U87C U102C | 0.76
A36C A56G U102C A111G | 0.01
A36G A91G A126G | 1.05
A36U A90G A98G U127C | 0.35
A33U U122C U132A | 0.77
A36G U43C A67G U100C C112G A140G | 0.01
C34U A94G A95G A117G | 1.85
U37C A89G A95G U103A A117G | 1.29

Variant | self-cleavage
C35U U43C A78U U108C U120C U132A U133C A140G | 0
A36C U37C A47U | 0.75
U37C A59G U103C | 0.55
A36G U39C U100C | 0.78
A36U A47G A63G U132C | 0.99
U37C A55G A78G | 0.32
A36G A94G A95G A96G U102A A114U U127C U131C U139C | 0
U37C A62G U132A | 0.93
A36U A94G U100C | 2.28
C34A A56G U100C A118G | 1.53
U37C A47G A64U A134G | 0.06
A33U C42U A60G A91G A94G | 0.5
U37C A64G A95G U103C U131C | 1.02
U37C A69G U72C U124A | 0.2
A36G A51G A62G A68G A98G | 0.61
U37C A59U A94G U132C | 1.4
A36C A55G A59G A64U U103C | 1.45
A36G A82U U108C | 0.02
U37C A94G U102A | 0.68
U37C A59G U100C A118G U122C A125G | 1.78
U37C A78U A117G | 0.09
U37C A60G A95G | 0.82
A36U G75C U122C U133C | 0.13
A33G U49C A78G | 0.04

Variant | self-cleavage
U37C A60U A94G A135G | 2.26
A33U A56G A59U A62G A69U | 1.89
U37C A52G U130C | 0.88
A36U A62G U108C | 0.03
A36G U70C U130C | 0.14
A36C A47U A67U A78U | 0.51
C35U A63G A116G | 0.36
A33U U38C G53U A60G | 0.47
A36G U39C A116C | 0.18
U37C A64C U133C | 0.89
C35U A95G U100A U102C | 1.88
A36G A96G A117U A125G | 0.67
U37A U38C A66G | 2.09
U37C A89G A114G | 0.85
A33U U43A U130C | 1.23
A36G U37C A64C A86G | 0.89
A36G U38C A96U U103C | 0
A33G U70C A90G A118G U139C | 0.09
U37A A56G A94G | 1.4
A36U A67G G84A A96U | 2.2
A36U U120C A135G | 1.25
A33G U43G A78U A114G | 0.07
C35A A78G A135G | 0.24
A33G U43A U122G | 2.14

Variant | self-cleavage
U37C A51G U70C A78U A92G | 0.31
A33U U70G U100C A135U | 1.55
A33U A51U A114U | 0.03
U37C A98U A111G | 0.04
U37C A60G A69G | 0.7
A36U A59G U100C | 2.13
U37C C88A U131C | 0.16
A33G U39C A92G U102C U108C U127A A135G | 0.01
U37C A90G U108G U120C | 0
U37C A69G U120C | 0.21
A33U A55G A59G U87C | 0.46
A33G U57C A135G | 0.71
C34U A90G U127C | 0.39
U37C G41A A52U G73A G83U | 0.35
A36G A67U U122A A126G | 1.63
A36G A62U A92G | 2.06
U37C A68G U127C | 0.77
A36U A64G U70C A78G U87C U100G | 0.32
A33G U39C A56G A60G | 0
C34U A55G U103C U108C A118G U132C | 0
U37C A62G U102A A110C U124C G137U | 0.04
U37C A54G U87C | 0.93
A36G A51G U57C A95G A125G | 0.55
A36U A51G A111G | 0.01

Variant | self-cleavage
A33U U108C A126G | 0
U37C A51G A64G A82G U103G | 0
A36U A47G A51U G73A C85A A111G A125G A135G | 0.01
A36G U39C A64U A96G | 1.57
U37C A51G A56G U100C | 2.13
A33U A63U U124C | 1.63
A36G U57C A94G A125G A135G | 0.24
U37C A47G A63G | 1
A36U U37A U43A A60G | 1.11
A36U A68G G83A A90G | 0.81
A33G U39A G106U | 0.02
A36U A78G U124A | 0.14
A36U A51U A62G A98U | 1.28
U37C A62G G74A G79U A92G | 0.16
U37C A56G G138U | 1.25
U37C A66G A116G A126G | 0.57
A36U A47G A118U | 0.5
C35G U72A U131C A135G | 0.02
A36G A96G C109U A134G A140U | 0.43
A36G U57C A129G | 1.18
A36G U39C A67G A69G G74A | 0.88
A36U U38C U43C A126G | 1.18
A36C A60G G106A A111G A117U U127C | 0
